Among all 410,000 compounds or so, about 6,400 (1.6%) were called active. The inconclusive results got no clear call from the source; some entries with a clear call stand among them for comparison. The call rests on the fitted dose curve; in most records, active means well fitted inhibition curve with a large enough effect; inconclusive means small, poorly fitted or top-dose-only effect; inactive means no such curve, though single readings can be large or run the other way. No potency is given beside an inconclusive call; the fits are too rough.
Target: Glucagon-like peptide 1 receptor (Homo sapiens) (UniProt P43220)
Sequence of UniProt P43220 (P43220 whole entry, looked up): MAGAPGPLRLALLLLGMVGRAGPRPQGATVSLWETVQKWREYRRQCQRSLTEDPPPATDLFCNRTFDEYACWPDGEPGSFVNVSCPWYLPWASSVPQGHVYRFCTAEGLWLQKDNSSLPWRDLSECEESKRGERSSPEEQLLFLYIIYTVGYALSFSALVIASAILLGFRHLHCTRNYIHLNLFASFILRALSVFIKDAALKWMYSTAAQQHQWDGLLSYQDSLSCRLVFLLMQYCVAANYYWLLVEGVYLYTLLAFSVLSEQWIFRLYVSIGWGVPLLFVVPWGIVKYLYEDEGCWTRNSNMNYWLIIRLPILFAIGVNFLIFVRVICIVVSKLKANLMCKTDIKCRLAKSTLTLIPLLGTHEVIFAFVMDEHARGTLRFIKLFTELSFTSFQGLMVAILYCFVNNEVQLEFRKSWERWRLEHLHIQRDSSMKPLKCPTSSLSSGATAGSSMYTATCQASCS
Experiment: qHTS of GLP-1 Receptor Inverse Agonists (Inhibition Mode); further: nearly all actives have a fitted effect of over 55% in size
Settings: HEK293 GLP-1R CRE-luciferase, luminescence, 24 h, GLP-1R form is constitutively active; activity change, negative = inhibition: at 38.3 µM (top of the series) unless noted
How it was run: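 Cells are plated, allowed 12 hours at 37 deg C, then treated with compounds for 24 hr before luciferase detection reagent is added and luminescence is read after 12 min at room temperature. The HEK293 line carries constitutively active GLP-1R with a cAMP-responsive reporter.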
On the % scale 0 is the no-effect control and ±100 the full control effect; potency means the concentration at half of the fitted maximal effect; tags describe the fitted curve by direction and shape.

Row | SMILES | Potency | activity change, negative = inhibition
1 | O=C(CC1CCCCC1)NCc1ccc(Cl)cc1 | inconclusive [inhibitor, single point] | –
2 | O=C(Nc1ccc2c(c1)OCO2)c1cc(C2CCCCN2C(=O)c2ccc(Cl)cc2)on1 (centres undefined) | inconclusive [inhibitor, partial curve, poor fit] | –
3 | CCCc1nc2ccc(C)cn2c1Cc1ccccc1C(F)(F)F | – | inactive: -45.3%
4 | O=C(Cn1c(=O)n(Cc2ccc(C(=O)NCc3ccc4c(c3)OCO4)cc2)c(=O)c2ccccc21)Nc1ccc(F)cc1F | – | inactive: 8.44%
5 | Cc1c(-c2nnc(SCC(=O)Nc3ccc(Br)cc3)o2)nnn1-c1ccc(F)cc1 | – | inactive: 4.29%
6 | Cc1ccc(S(=O)(=O)Nc2ccc3c(c2)OCCO3)cc1C | inconclusive [inhibitor, single point] | –
7 | Cc1ccc(C(=O)Nc2sc3c(c2C(=O)O)CCCCC3)o1 | inconclusive [inhibitor, partial curve] | –
8 | COC(=O)c1ccn(-c2nc(-c3ccc(Cl)cc3)cc(C(F)(F)F)n2)n1 | – | inactive: -11.1%
9 | Cc1ccc(NC(=O)CN(C)C(=O)c2cc(-c3ccccc3)nn2-c2ccccc2)cc1 | inconclusive [inhibitor, partial curve, poor fit] | –
10 | O=C(NC(=S)Nc1cc(Cl)ccc1O)c1cccc(Br)c1 | inconclusive [inhibitor, single point] | –
11 | CSc1ccc(CN2CCC(C)(Oc3cccc(Cl)c3)C2)cc1 (centres undefined) | inconclusive [inhibitor, partial curve, poor fit] | –
12 | Cc1ccc(S(=O)(=O)N2CCCc3cc(NS(=O)(=O)c4ccc(C)c(C)c4)ccc32)cc1 | inconclusive [inhibitor, single point] | –
13 | COc1ccc(C(=O)NC(=S)Nc2cccc3cc(O)ccc23)cc1OC | inconclusive [inhibitor, single point] | –
14 | Cc1ccc(-c2nc(P(=O)(c3ccccc3)c3ccccc3)c(N3CCOCC3)o2)cc1 | active: 10 µM | –
15 | CCOc1cc(/C=C2\SC(=S)N(N3CCOCC3)C2=O)ccc1O | – | inactive: -8.14%
16 | CCOC(=O)C1CCN(C(=O)c2cccc(S(=O)(=O)N3c4ccccc4CC3C)c2)CC1 (centres undefined) | inconclusive [inhibitor, single point] | –
17 | CC(NC(=O)CCCOc1ccc(Cl)cc1)c1ccccc1 (centres undefined) | inconclusive [inhibitor, single point] | –
18 | CC(C)(C)c1cn(-c2ccccc2)c(=S)[nH]1 | inconclusive [inhibitor, single point] | –
19 | Cc1cc(OCc2cc(C(=O)N(C)Cc3nonc3C)no2)cc(C)c1Cl | inconclusive [inhibitor, partial curve, poor fit] | –
20 | Cc1cc(C(=O)CN2C(=O)C(=O)N(Cc3ccccc3)C2=O)c(C)n1Cc1ccccc1 | inconclusive [inhibitor, single point] | –

Row | SMILES | Potency | activity change, negative = inhibition
21 | CC1CCc2c(sc(NC(=O)c3cccs3)c2C(=O)O)C1 (centres undefined) | – | inactive: -30%
22 | CCC(Oc1ccccc1)C(=O)Nc1nnc(C)s1 (centres undefined) | – | inactive: 12.6%
23 | CC(=O)OC1CC(c2cc(C(C)(C)C)c(O)c(C(C)(C)C)c2)=NO1 (centres undefined) | inconclusive [inhibitor, partial curve, poor fit] | –
24 | CCCCNc1c(-c2ccc(OC)c(Sc3ccc(OC)cc3)c2)nc2ccccn12 | inconclusive [inhibitor, partial curve, poor fit] | –
25 | CC(C)(C)N1C(=O)[C@H]2[C@@H](c3ccc(Br)cc3)N3C(=O)N(c4ccccc4)C(=O)[C@@]3(C)[C@H]2C1=O | inconclusive [inhibitor, single point] | –
26 | CCCCNC(=O)CN1C(=O)c2c(c3ccccc3n2C)C1c1ccc(OC)cc1 (centres undefined) | inconclusive [inhibitor, single point] | –
27 | Cc1cc(NCC(=O)Nc2ccc(C)c(S(=O)(=O)N3CCOCC3)c2)ccc1Br | inconclusive [inhibitor, single point] | –
28 | CC(=O)c1ccc(NC(=O)C2CCCN(C(=O)c3ccc(Cl)cc3)C2)cc1 (centres undefined) | inconclusive [inhibitor, single point] | –
29 | CCn1c2ccccc2c2cc(NC(=O)CCCN3C(=O)CCC3=O)ccc21 | inconclusive [inhibitor, full curve, poor fit] | –
30 | Fc1ccc(-n2nnc(-c3cnc4ccccc4c3)n2)cc1 | inconclusive [inhibitor, full curve, poor fit] | –
31 | COC(=O)[C@]12CCCCC=C1N(Cc1cccc3ccccc13)C(=O)[C@H](CC(=O)NCC1CCCCC1)C2 | inconclusive [inhibitor, partial curve, poor fit] | –
32 | CC(C)C[C@H]1CN([C@@H](CC(C)C)CN2CCC[C@H]2CN2C(=O)C(=O)NC[C@@H]2Cc2ccc(O)cc2)C(=O)C(=O)N1CC1CCCCCC1 | inconclusive [inhibitor, single point] | –
33 | Cc1oc(-c2ccc(Cl)cc2)nc1CS(=O)CC(=O)NCCCN1CCCC(C)C1 (centres undefined) | inconclusive [inhibitor, partial curve, poor fit] | –
34 | COc1ccc(-c2ccc(C(=O)Nc3cccc(F)c3)c3occc23)c(C)c1 | inconclusive [inhibitor, partial curve, poor fit] | –
35 | CCOC(=O)c1cccc(OCC(O)CNCCOc2ccccc2F)c1 (centres undefined) | inconclusive [inhibitor, partial curve, poor fit] | –
36 | COc1ccc(C)cc1NC(=O)CCN1CCN(c2ccccc2F)CC1 | inconclusive [inhibitor, partial curve] | –
37 | COc1ccc(-c2noc(=O)n2Cc2ccc(F)cc2Cl)cc1 | – | inconclusive: -47.4% [inhibitor]
38 | O=C(CN1C(=O)C2CCCCC2C1=O)Nc1cccc(C(F)(F)F)c1 (centres undefined) | inconclusive [inhibitor, single point] | –
39 | CCc1ccc(C(O)c2ncc(-c3cccc(C(F)(F)F)c3)[nH]2)cc1 (centres undefined) | inconclusive [inhibitor, partial curve, poor fit] | –

Source: PubChem BioAssay AID624417 (National Center for Advancing Translational Sciences (NCATS), 2012)
